Data: PubChem BioAssay AID686971 (National Center for Advancing Translational Sciences (NCATS), 2013)
The whole screen tested about 360,000 compounds, of which about 7,500 (2.1%) were called active. This list was built around the results that the source calls inconclusive (neither active nor inactive); the mix of calls is not that of the screen. Calls come from the whole dose curve; as a rule, active = well fitted cell-killing curve with a large enough effect; inconclusive = small, poorly fitted or top-dose-only effect, or effect the other way, or another doubt; inactive = no such curve, though single readings can be large or run the other way. No potency is given beside an inconclusive call; the fits are too rough.

Experiment: qHTS for induction of synthetic lethality in tumor cells producing 2HG: qHTS for the HT-1080-IDH1KD cell line;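 for activity, negative = toxicity: 0% = DMSO wells and -100% = cell-free medium wells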
Conditions: HT-1080 IDH1 knockdown viability, ATP luminescence, 48 h; activity, negative = toxicity: at 46.1 µM (top of the series) unless noted
How it was run: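 Knockdown cells (IDH1KD HT-1080) received compounds 2 h after plating at 750 cells/well and were kept 48 h at 37 °C in 5% FBS RPMI. A CellTiter-Glo luminescence read gave % activity for curve fitting.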
Potency is the fitted concentration of half-maximal effect; tags give direction and shape of the fitted curve.

Compound	Potency	activity, negative = toxicity
CCOc1c(Br)cc(C2CC(=O)Nc3cc(OC)c(OC)cc32)cc1OC (centres undefined)	inconclusive [cytotoxic, partial curve]	
Cc1ccc2[nH]c(=O)c(CN(Cc3ccccc3)C(=S)NCCCN(C)C)cc2c1	active: 16.4 µM	
Cc1nn(Cc2ccccc2)c2c1C(c1cccc(Cl)c1)C(C#N)=C(N)O2 (centres undefined)	inconclusive [cytotoxic, single point]	
CCc1ccccc1N1CCN(S(=O)(=O)c2cc(OC)ccc2OC)CC1	inconclusive [cytotoxic, single point]	
COc1cccc(NC(=O)c2ccc(CN3CCN(c4ccccc4)CC3)cc2)c1	inconclusive [cytotoxic, partial curve]	
COc1ccc(C(=O)CSc2cc(C)nc3nc(C)nn23)cc1OC	active: 11.2 µM	
CN(NC(=O)c1ccccc1F)c1nc(C(F)(F)F)nc2ccccc12	active: 0.206 µM	
CCc1ccc(OCC(=O)NNC(=O)c2cc(S(=O)(=O)N(C)C)ccc2N2CCCC2)cc1		inactive: -7.74%
C/C(=N\N=C1\NC(=O)C(CC(=O)Nc2ccc(C)c(Cl)c2)S1)C(C)(C)C (centres undefined)	inconclusive [cytotoxic, single point]	
O=C(CC12CC3CC(CC(C3)C1)C2)Nc1nncs1	inconclusive [cytotoxic, single point]	
COc1ccccc1Cc1c(-c2ccc(OC)c(OC)c2)nc2c(C)cc(Br)cn12	inconclusive [cytotoxic, single point]	
O=C(O)c1ccc(N2C(=O)CC(SC(=NCc3ccc4c(c3)OCO4)Nc3ccc(F)cc3)C2=O)cc1 (centres undefined)	inconclusive [cytotoxic, single point]	
C=C(C)COc1ccc(-c2[nH]ncc2Oc2ccccc2OCC)c(O)c1	active: 25.9 µM	
COc1ccc(N2C(=O)c3ccccc3NC2c2ccc(NC(C)=O)cc2)c(OC)c1 (centres undefined)		inactive: 2.49%
O=C(COc1ccc2ccc(=O)oc2c1)NC1CCN(Cc2ccccc2)CC1		inactive: -5.91%
CC(C)(C)OC(=O)N1CCCN(C(c2cc3ccccc3o2)c2nnnn2C(C)(C)C)CC1 (centres undefined)	inconclusive [cytotoxic, single point]	
O=C(NCCN1CCC(n2c(=O)[nH]c3ccccc32)CC1)c1ccc(OC(F)(F)F)cc1	inconclusive [cytotoxic, single point]	
CC1=C(C(=O)N(C(C)C)C(C)C)CC(CC(=O)NCCCCc2ccccc2)C(=O)N1Cc1ccc(C(C)(C)C)cc1 (centres undefined)	inconclusive [cytotoxic, single point]	
O=C(O)c1ccc(-n2cccc2)cc1O	inconclusive [cytotoxic, single point]	
Cc1c(C(=O)N2CCOCC2)[nH]c2c1C(=O)CC(c1ccccc1Cl)C2 (centres undefined)	active: 3.98 µM	
Cc1ccc(N2CCN(S(=O)(=O)c3cccs3)CC2C)cc1 (centres undefined)	inconclusive [cytotoxic, single point]	
Cc1cc(NC(=O)C(C)C)ncc1NC(=O)CCc1ccccc1		inactive: 7.66%

Compound	Potency	activity, negative = toxicity
CCc1nc2c(OCc3ccc(Cl)cc3Cl)cccn2c1N(C)C(=O)C(C)C	active: 16.4 µM	
CC(C)(C)c1ccc(OCCCC(=O)NC2=NCCS2)cc1	inconclusive [cytotoxic, single point]	
Cc1ccc2c(-c3ccc([N+](=O)[O-])cc3)cc(=O)[nH]c2c1	inconclusive [cytotoxic, partial curve, poor fit]	
Cc1ccccc1CN(c1ccc(C(=O)Nc2ccccc2C(=O)NCc2ccco2)cc1)S(C)(=O)=O	inconclusive [cytotoxic, single point]	
Cc1nnc(NC(=O)CSc2nccn2-c2cccc(C)c2C)s1	inconclusive [cytotoxic, partial curve]	
COc1cc2c(cc1OC)C(c1cccs1)N(C(=O)c1cccnc1)CC2 (centres undefined)	inconclusive [cytotoxic, full curve]	
O=C(Nc1ccc(Cl)c(Cl)c1)C1=Cc2ccccc2OC1	inconclusive [cytotoxic, single point]	
CCOc1ccc2cc(C3CC(c4ccco4)=NN3S(C)(=O)=O)c(Cl)nc2c1 (centres undefined)		inactive: -7.91%
CC(=O)N1c2ccc(S(=O)(=O)N3CCC(C(=O)Nc4cccc(C(F)(F)F)c4)CC3)cc2CC1C (centres undefined)	inconclusive [cytotoxic, single point]	
CNC(=O)CC1C(=O)N(c2ccc(OC)cc2)C(=S)N1NC(=O)c1cccc(F)c1 (centres undefined)	inconclusive [rising, partial curve]	
CCn1nc(NS(=O)(=O)c2ccc([N+](=O)[O-])cc2)c2cc3cccc(C)c3nc21	inconclusive [cytotoxic, single point]	
COc1cccc(NC(=O)c2ncc(Cl)c(Cl)c2Cl)c1	inconclusive [cytotoxic, partial curve, poor fit]	
CCOC(=O)C1CCCN(C(=O)c2cc3c(-c4cccc(OC)c4)nn(C)c3s2)C1 (centres undefined)	active: 18.4 µM	
CCC(C(=O)NC1CCCC1)N(C(=O)Cn1nnc(-c2ccc(OC)c(OC)c2)n1)C1CCCCC1 (centres undefined)		inactive: -4.51%
COc1ccc(Nc2nc(-c3sc(C)nc3C)cs2)cc1	active: 3.66 µM	
Cc1cccc(OCCN2CSC(=S)N(C)C2)c1	inconclusive [cytotoxic, partial curve]	
COc1cc2c3c(cccc3c1)C(=O)N(CCN1CCCC1)C2=O	active: 8.2 µM	
COC(=O)c1ccc2nc(-c3ccccc3)c(Cc3ccc(C)cc3)n2c1		inactive: 1.38%
CC(=O)c1ccc(NC(=O)CSc2nc(C3CC3)nc3ccccc23)cc1		inactive: -16.2%
Cc1ccc(NS(=O)(=O)c2cc(NC(=O)c3ccc4c(c3)NC(=O)CS4)ccc2C)c(C)c1	inconclusive [cytotoxic, partial curve]	
CC/C(=C(/CC)c1ccc(O)cc1)c1ccc(O)cc1	active: 14.6 µM	
O=C(Cn1ncc(Cl)c(Cl)c1=O)c1ccc2c(c1)OCCO2	inconclusive [cytotoxic, single point]	
